Test results from US5763404A, “Methods for using LHRH antagonists with low histamine release” (priority 1995, dated 1998).
Not every detail of the peptide structures is certain; ends, links or a residue may be inferred. Starred links: 1 amine or outer side, 2 acyl side, 3 side chain; linkers in the order of their positions; H or OH if unused. Non-standard residues stand in square brackets, D forms with d. Residues, ends and D or L forms follow the SMILES beside them. *: point of attachment. dAla(cis-4-NHCOPyz-cHex) = N[C@H](C[C@H]1CC[C@@H](NC(=O)c2cnccn2)CC1)C(=O)O; X8 = O=C(N[C@H]1CC[C@@H](C[C@@H](N[*:1])C(=O)[*:2])CC1)c1ccncn1; X2 = O=C(N[C@H]1CC[C@@H](C[C@H](N[*:1])C(=O)[*:2])CC1)c1cnccn1; dPhe(4-Cl) = N[C@H](Cc1ccc(Cl)cc1)C(=O)O; d2Nal = N[C@H](Cc1ccc2ccccc2c1)C(=O)O; Lys(iPr) = CC(C)NCCCC[C@H](N)C(=O)O; Orn(iPr) = CC(C)NCCC[C@H](N)C(=O)O; aIle = CC[C@@H](C)[C@H](N)C(=O)O; d3Pal = N[C@H](Cc1cccnc1)C(=O)O; NMeL = CN[C@@H](CC(C)C)C(=O)O; Nicotinoyl = O=C(c1cccnc1)*; Picolinoyl = O=C(c1ccccn1)*; Abu = CC[C@H](N)C(=O)O; X12 = O=C(c1ccncn1)*

System: 4-day cycling rats
Test: antiovulatory activity (AOA) in rats, single sc injection
Assay type: in vivo, rat
Details: for AOA/μg 0.5 / AOA/μg 0.25: Table III; for AOA/μg 0.5: 0.5 μg sc; for AOA %/μg 0.25: 0.25 μg sc in corn oil; for AOA/μg 0.25: 0.25 μg sc

| SMILES | AOA/μg 0.5 | AOA %/μg 0.25 [%] | AOA/μg 0.25 |
| --- | --- | --- | --- |
| CC(=O)N[C@H](Cc1ccc2ccccc2c1)C(=O)N[C@H](Cc1ccc(Cl)cc1)C(=O)N[C@H](Cc1c[nH]c2ccccc12)C(=O)N[C@@H](CO)C(=O)N[C@@H](CCCCNC(=O)c1ccccn1)C(=O)N[C@H](CCCCNC(=O)c1ccccn1)C(=O)N[C@@H](CC(C)C)C(=O)N[C@@H](CCCCNC(C)C)C(=O)N1CCC[C@H]1C(=O)N[C@H](C)C(N)=O [compound 26177] (Ac-[d2Nal][dPhe(4-Cl)][dW]SK(Picolinoyl)[dK](Picolinoyl)L[Lys(iPr)]P[dA]-NH2) | 20 | – | – |
| CC[C@@H](C)[C@H](NC(=O)[C@@H](CCCCNC(=O)c1ccccn1)NC(=O)[C@H](CCCCNC(=O)c1ccccn1)NC(=O)[C@H](CO)NC(=O)[C@@H](Cc1cccnc1)NC(=O)[C@@H](Cc1ccc(Cl)cc1)NC(=O)[C@@H](Cc1ccc2ccccc2c1)NC(C)=O)C(=O)N[C@@H](CCCNC(C)C)C(=O)N1CCC[C@H]1C(=O)N[C@H](C)C(N)=O [compound 26178] (Ac-[d2Nal][dPhe(4-Cl)][d3Pal]SK(Picolinoyl)[dK](Picolinoyl)[aIle][Orn(iPr)]P[dA]-NH2) | 82 | – | – |
| CC[C@H](NC(=O)[C@@H](CCCCNC(=O)c1ccccn1)NC(=O)[C@H](CCCCNC(=O)c1ccccn1)NC(=O)[C@H](CO)NC(=O)[C@@H](Cc1cccnc1)NC(=O)[C@@H](Cc1ccc(Cl)cc1)NC(=O)[C@@H](Cc1ccc2ccccc2c1)NC(C)=O)C(=O)N[C@@H](CCCNC(C)C)C(=O)N1CCC[C@H]1C(=O)N[C@H](C)C(N)=O [compound 26179] (Ac-[d2Nal][dPhe(4-Cl)][d3Pal]SK(Picolinoyl)[dK](Picolinoyl)[Abu][Orn(iPr)]P[dA]-NH2) | 80 | – | – |
| CC(=O)N[C@H](Cc1ccc2ccccc2c1)C(=O)N[C@H](Cc1ccc(Cl)cc1)C(=O)N[C@H](Cc1cccnc1)C(=O)N[C@@H](CO)C(=O)N[C@@H](C[C@H]1CC[C@@H](NC(=O)c2cnccn2)CC1)C(=O)N[C@H](CCCCNC(=O)c1ccccn1)C(=O)N[C@@H](CC(C)C)C(=O)N[C@@H](CCCCNC(C)C)C(=O)N1CCC[C@H]1C(=O)N[C@H](C)C(N)=O [compound 26180] (Ac-[d2Nal][dPhe(4-Cl)][d3Pal]S[X2][dK](Picolinoyl)L[Lys(iPr)]P[dA]-NH2) | 90 | 67 | 67 |
| CC(=O)N[C@H](Cc1ccc2ccccc2c1)C(=O)N[C@H](Cc1ccc(Cl)cc1)C(=O)N[C@H](Cc1cccnc1)C(=O)N[C@@H](CO)C(=O)N[C@@H](CCCCNC(=O)c1ccccn1)C(=O)N[C@H](C[C@H]1CC[C@@H](NC(=O)c2cnccn2)CC1)C(=O)N[C@@H](CC(C)C)C(=O)N[C@@H](CCCNC(C)C)C(=O)N1CCC[C@H]1C(=O)N[C@H](C)C(N)=O [compound 26181] (Ac-[d2Nal][dPhe(4-Cl)][d3Pal]SK(Picolinoyl)[dAla(cis-4-NHCOPyz-cHex)]L[Orn(iPr)]P[dA]-NH2) | 100 | – | 50 |
| CC(=O)N[C@H](Cc1ccc2ccccc2c1)C(=O)N[C@H](Cc1ccc(Cl)cc1)C(=O)N[C@H](Cc1cccnc1)C(=O)N[C@@H](CO)C(=O)N[C@@H](CCCCNC(=O)c1ccncn1)C(=O)N[C@H](CCCCNC(=O)c1ccncn1)C(=O)N[C@@H](CC(C)C)C(=O)N[C@@H](CCCCNC(C)C)C(=O)N1CCC[C@H]1C(=O)N[C@H](C)C(N)=O [compound 26322] (Ac-[d2Nal][dPhe(4-Cl)][d3Pal]SK(X12)[dK](X12)L[Lys(iPr)]P[dA]-NH2) | – | – | 0 |
| CC(=O)N[C@H](Cc1ccc2ccccc2c1)C(=O)N[C@H](Cc1ccc(Cl)cc1)C(=O)N[C@H](Cc1cccnc1)C(=O)N[C@@H](CO)C(=O)N[C@@H](CCCCNC(=O)c1ccccn1)C(=O)N[C@H](C[C@H]1CC[C@@H](NC(=O)c2ccncn2)CC1)C(=O)N[C@@H](CC(C)C)C(=O)N[C@@H](CCCCNC(C)C)C(=O)N1CCC[C@H]1C(=O)N[C@H](C)C(N)=O [compound 26323] (Ac-[d2Nal][dPhe(4-Cl)][d3Pal]SK(Picolinoyl)[X8]L[Lys(iPr)]P[dA]-NH2) | 9 | – | – |
| CC(=O)N[C@H](Cc1ccc2ccccc2c1)C(=O)N[C@H](Cc1ccc(Cl)cc1)C(=O)N[C@H](Cc1cccnc1)C(=O)N[C@@H](CO)C(=O)N[C@@H](CCCCNC(=O)c1ccccn1)C(=O)N[C@H](C[C@H]1CC[C@@H](NC(=O)c2cnccn2)CC1)C(=O)N[C@H](C(=O)N[C@@H](CCCCNC(C)C)C(=O)N1CCC[C@H]1C(=O)N[C@H](C)C(N)=O)C(C)C [compound 26325] (Ac-[d2Nal][dPhe(4-Cl)][d3Pal]SK(Picolinoyl)[dAla(cis-4-NHCOPyz-cHex)]V[Lys(iPr)]P[dA]-NH2) | 100 | 73 | 73 |
| CC(=O)N[C@H](Cc1ccc2ccccc2c1)C(=O)N[C@H](Cc1ccc(Cl)cc1)C(=O)N[C@H](Cc1cccnc1)C(=O)N[C@@H](CO)C(=O)N[C@@H](C[C@H]1CC[C@@H](NC(=O)c2cnccn2)CC1)C(=O)N[C@H](C[C@H]1CC[C@@H](NC(=O)c2cnccn2)CC1)C(=O)N[C@@H](CC(C)C)C(=O)N[C@@H](CCCCNC(C)C)C(=O)N1CCC[C@H]1C(=O)N[C@H](C)C(N)=O [compound 26326] (Ac-[d2Nal][dPhe(4-Cl)][d3Pal]S[X2][dAla(cis-4-NHCOPyz-cHex)]L[Lys(iPr)]P[dA]-NH2) | 100 | 57 | 57 |
| CC(=O)N[C@H](Cc1ccc2ccccc2c1)C(=O)N[C@H](Cc1ccc(Cl)cc1)C(=O)N[C@H](Cc1cccnc1)C(=O)N[C@@H](CO)C(=O)N[C@@H](CCCCNC(=O)c1cccnc1)C(=O)N[C@H](CCCCNC(=O)c1cccnc1)C(=O)N(C)[C@@H](CC(C)C)C(=O)N[C@@H](CCCCNC(C)C)C(=O)N1CCC[C@H]1C(=O)N[C@H](C)C(N)=O [compound 26345] (Ac-[d2Nal][dPhe(4-Cl)][d3Pal]SK(Nicotinoyl)[dK](Nicotinoyl)[NMeL][Lys(iPr)]P[dA]-NH2) | – | – | 10 |
| CC[C@H](NC(=O)[C@@H](CCCCNC(=O)c1ccccn1)NC(=O)[C@H](CCCCNC(=O)c1ccccn1)NC(=O)[C@H](CO)NC(=O)[C@@H](Cc1cccnc1)NC(=O)[C@@H](Cc1ccc(Cl)cc1)NC(=O)[C@@H](Cc1ccc2ccccc2c1)NC(C)=O)C(=O)N[C@@H](CCCNC(=N)N)C(=O)N1CCC[C@H]1C(=O)N[C@H](C)C(N)=O [compound 26346] (Ac-[d2Nal][dPhe(4-Cl)][d3Pal]SK(Picolinoyl)[dK](Picolinoyl)[Abu]RP[dA]-NH2) | 88 | 50 | 50 |
| CC(=O)N[C@H](Cc1ccc2ccccc2c1)C(=O)N[C@H](Cc1ccc(Cl)cc1)C(=O)N[C@H](Cc1cccnc1)C(=O)N[C@@H](CO)C(=O)N[C@@H](CCCCNC(=O)c1ccccn1)C(=O)N[C@H](C[C@H]1CC[C@@H](NC(=O)c2cnccn2)CC1)C(=O)N[C@@H](CC(C)C)C(=O)N[C@@H](CCCNC(=N)N)C(=O)N1CCC[C@H]1C(=O)N[C@H](C)C(N)=O [compound 26347] (Ac-[d2Nal][dPhe(4-Cl)][d3Pal]SK(Picolinoyl)[dAla(cis-4-NHCOPyz-cHex)]LRP[dA]-NH2) | – | – | 14 |
| CC(=O)N[C@H](Cc1ccc2ccccc2c1)C(=O)N[C@H](Cc1ccc(Cl)cc1)C(=O)N[C@H](Cc1cccnc1)C(=O)N[C@@H](CO)C(=O)N[C@@H](CCCCNC(=O)c1ccccn1)C(=O)N[C@H](C[C@H]1CC[C@@H](NC(=O)c2cnccn2)CC1)C(=O)N[C@@H](CC(C)C)C(=O)N[C@@H](CCCCNC(C)C)C(=O)N1CCC[C@H]1C(=O)N[C@H](CO)C(N)=O [compound 26348] (Ac-[d2Nal][dPhe(4-Cl)][d3Pal]SK(Picolinoyl)[dAla(cis-4-NHCOPyz-cHex)]L[Lys(iPr)]P[dS]-NH2) | – | – | 22 |
